{
  "source": "PubChem BioAssay AID651820",
  "about": "(National Center for Advancing Translational Sciences (NCATS), 2012)",
  "note": "About 12,000 (3.5%) of roughly 340,000 compounds were called active. The inconclusive results got no clear call from the source; some entries with a clear call stand among them for comparison. The call rests on the fitted dose curve; in most records, active means well fitted inhibition curve with a large enough effect; inconclusive means small, poorly fitted or top-dose-only effect, or another doubt; inactive means no such curve, though single readings can be large or run the other way. No potency is given beside an inconclusive call; the fits are too rough. Potency means the concentration at half of the fitted maximal effect; tags describe the fitted curve by direction and shape.",
  "data": [
    {"assay": "qHTS Assay for Inhibitors of Hepatitis C Virus (HCV)", "details": "Huh7.5.1 HCVcc-Cre (HCVcc is cell-culture hepatitis C virus) infection, luciferase reporter, 44 h; series mostly up to 41.8 µM", "how_it_was_run": "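Cells seeded at 1,000/well and cultured 4 h, then compounds added followed by HCVcc-Cre virus (~0.5 moi). After 44 h further culture, luciferase substrate was added, plates held 15 min at room temperature, and luminescence read for 15 sec.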", "values": [
      {"smiles": "CSc1ccc(C(=O)C2CCCN(C(=O)c3ccc4c(c3)no[n+]4[O-])C2)cc1", "note": "(centres undefined)", "Potency": "inconclusive [inhibitor, single point]"},
      {"smiles": "COc1cc(C(=O)N2CCN(c3ccccc3)CC2)c2ccccc2n1", "Potency": "inactive"},
      {"smiles": "CCOC(=O)CNS(=O)(=O)c1cc(-c2nnc(Nc3ccc4c(c3)OCO4)c3ccccc23)ccc1C", "Potency": "inconclusive [inhibitor, single point]"},
      {"smiles": "COc1ccc(NC(=O)c2ccc(-c3csc(C)n3)cc2)cc1", "Potency": "active: 7.08 µM"},
      {"smiles": "CCC(C)NS(=O)(=O)c1ccc(S(=O)(=O)N2CCCC3(CCCCC3)C2)cc1", "note": "(centres undefined)", "Potency": "active: 10 µM"},
      {"smiles": "Cc1cccc(OCc2nc(-c3cccnc3)no2)c1", "Potency": "inconclusive [inhibitor, single point]"},
      {"smiles": "Fc1ccc(CNC2CCN(Cc3ccccc3)CC2)cc1", "Potency": "inconclusive [inhibitor, partial curve]"},
      {"smiles": "Cc1ccc(C(O)(CCN2CCCCC2)c2ccccc2)cc1", "note": "(centres undefined)", "Potency": "inconclusive [inhibitor, partial curve]"},
      {"smiles": "CCOC(=O)c1c(NC(=O)OC)sc(C(=O)N(CC)CC)c1C", "Potency": "inconclusive [inhibitor, partial curve, poor fit]"},
      {"smiles": "COc1cccc(-c2ccc(NC(=O)C3CCCN(Cc4cnc(N(C)C)s4)C3)cc2)c1", "note": "(centres undefined)", "Potency": "inconclusive [inhibitor, partial curve]"},
      {"smiles": "CCN(CC)c1cc2nc(C)n(Cc3ccccc3)c(=O)c2cc1NC(=O)C1CC1", "Potency": "inconclusive [inhibitor, single point]"},
      {"smiles": "CCOc1ccc(NS(=O)(=O)c2ccc(C(=O)NCC(c3ccccc3OC)N3CCCC3)cc2)cc1", "note": "(centres undefined)", "Potency": "inconclusive [inhibitor, single point]"},
      {"smiles": "COC(=O)c1ccc(/C=C(\\C#N)C(=O)NC(C)c2ccccc2)cc1", "note": "(centres undefined)", "Potency": "active: 11.2 µM"},
      {"smiles": "CCOc1ccc(NS(=O)(=O)c2csc(C(N)=O)c2)cc1", "Potency": "inactive"},
      {"smiles": "CC1=C(C)SC(=C(C#N)c2nnc(N3CCOCC3)n2-c2ccccc2)S1", "Potency": "inactive"},
      {"smiles": "Cc1cc(C)c2c(ccc3ccccc32)n1", "Potency": "inconclusive [inhibitor, single point]"},
      {"smiles": "CSc1ncccc1C(=O)OCC(=O)Nc1ccc(C)c(S(=O)(=O)N2CCOCC2)c1", "Potency": "inconclusive [inhibitor, single point]"},
      {"smiles": "COc1ccccc1OCCCOc1c(C)cc(C)cc1Br", "Potency": "inconclusive [inhibitor, partial curve]"},
      {"smiles": "O=C(Nc1ncc(Cc2ccccc2Cl)s1)c1ccc([N+](=O)[O-])cc1", "Potency": "inconclusive [inhibitor, partial curve]"},
      {"smiles": "COCCSc1ccccc1C(=O)Nc1ccc(S(=O)(=O)N2CCOCC2)cc1", "Potency": "inactive"},
      {"smiles": "O=[N+]([O-])c1cccc(CN2CCN(Cc3ccc(Cl)cc3)CC2)c1", "Potency": "active: 10 µM"},
      {"smiles": "CCOc1ccc(NC(=S)N(CCc2c(C)[nH]c3ccc(C)cc23)Cc2ccco2)cc1", "Potency": "active: 11.2 µM"},
      {"smiles": "COc1cccc(N(C(=O)Cn2nnc(-c3ccc(C)cc3)n2)C(C(=O)NC(C)(C)C)c2c[nH]c3ccccc23)c1", "note": "(centres undefined)", "Potency": "inconclusive [inhibitor, single point]"},
      {"smiles": "CCOC(=O)c1c(C)[nH]c(C(=O)/C(C#N)=C/c2ccc(OCC)cc2)c1C", "Potency": "inconclusive [inhibitor, partial curve]"},
      {"smiles": "CCOC(=O)Cc1csc(NC(=O)C(C)Oc2ccc3c(C)cc(=O)oc3c2)n1", "note": "(centres undefined)", "Potency": "inconclusive [inhibitor, single point]"},
      {"smiles": "CC1(C(=O)Nc2ccc3c(c2)OCO3)CC1(Cl)Cl", "note": "(centres undefined)", "Potency": "inactive"},
      {"smiles": "O=C(CN1C(=O)C2C3C=CC(C4CC34)C2C1=O)Nc1cnc2ccccc2c1", "note": "(centres undefined)", "Potency": "inconclusive [inhibitor, partial curve]"},
      {"smiles": "COc1ccc(C(=O)Nc2ccccc2C(=O)NC(Cc2ccc(O)cc2)C(=O)NNC(=O)c2ccccc2Cl)cc1", "note": "(centres undefined)", "Potency": "inconclusive [inhibitor, partial curve]"},
      {"smiles": "CC(C(=O)Nc1cc(C(F)(F)F)ccc1N1CCOCC1)N1C(=O)C2CCCCC2C1=O", "note": "(centres undefined)", "Potency": "inactive"},
      {"smiles": "CCOC(=O)N1CCN(c2c(NCc3cccs3)c(=O)c2=O)CC1", "Potency": "inconclusive [inhibitor, single point]"},
      {"smiles": "COc1cc(NC(=O)c2cc([N+](=O)[O-])ccc2Br)ccc1NC(=O)c1ccco1", "Potency": "inconclusive [inhibitor, full curve]"},
      {"smiles": "Cc1nc(-c2ccccc2)cn2c1nc1ccccc12", "Potency": "inconclusive [inhibitor, single point]"},
      {"smiles": "COc1ccc(S(=O)(=O)NCc2ccncc2)cc1NC(=O)c1ccc(Cl)cc1", "Potency": "inconclusive [inhibitor, partial curve]"},
      {"smiles": "COc1cccc(C2=NOC(C(=O)Nc3ccc4c(c3)OCO4)C2)c1OC", "note": "(centres undefined)", "Potency": "inactive"},
      {"smiles": "O=c1c2ccccc2sn1-c1ccccc1", "Potency": "inconclusive [inhibitor, single point]"},
      {"smiles": "O=S(=O)(c1ccc(Cl)cc1)N1CCN=C1SCc1cccc(Cl)c1", "Potency": "inconclusive [inhibitor, single point]"},
      {"smiles": "Oc1cccc(/C=N/n2c(C3CCCCC3)n[nH]c2=S)c1", "Potency": "active: 2.24 µM"},
      {"smiles": "Cc1onc(-c2ccccc2Cl)c1C(=O)N1CCCCC1C", "note": "(centres undefined)", "Potency": "inactive"},
      {"smiles": "Cc1onc(-c2c(Cl)cccc2Cl)c1C(=O)Nc1ccc2c(c1)OCCO2", "Potency": "inconclusive [inhibitor, single point]"},
      {"smiles": "Cc1cc(NC(=O)c2ccccc2)n(C(C)(C)C)n1", "Potency": "inconclusive [inhibitor, single point]"},
      {"smiles": "Cn1c(N)c(C(=O)COC(=O)c2ccccc2C(=O)c2ccc(Cl)cc2)c(=O)n(C)c1=O", "Potency": "inconclusive [inhibitor, single point]"},
      {"smiles": "CC(C)c1ccc(NC(=S)NN2CCN(C)CC2)cc1", "Potency": "inconclusive [inhibitor, single point]"},
      {"smiles": "O=C(c1cc2ccccc2oc1=O)N1CCN(c2ccccn2)CC1", "Potency": "inactive"},
      {"smiles": "O=S(=O)(NC1CCCC1)c1cccc(-c2nnc(-c3ccccc3)o2)c1", "Potency": "inconclusive [inhibitor, single point]"}
    ]}
  ]
}
